{"source": "patent US20240352130A1", "about": "(CHILDREN S HOSPITAL OF PHILADELPHIA, published 2024)", "binders": {"B1": {"name": "Clone 302 (RU141-302) scFv (scFv)", "scFv": "SRNGGDGQSVLTQPPSVSVSPGQTASITCSGDKLGDKYACWYQQKPGQSPVLVIYQDSKRPSGIPERFSGSNSGNTATLTISGTQAMDEADYYCQAWDMVGSWTVVFGTGTKVTVSSQTGGSGGGGSGGGGSGGGGS[about 100 residues cut from this listing]PRFDGQWDNAFDIWGQGTMVTVSSS"}}, "target": "T1, PHOX2B (43-51) A*24:02 MHC complex (human)", "T1 construct": "also called PHOX2B (43-51) complex; PHOX2B target pMHC", "assay": "BLI (BLItz), biotinylated scFv on streptavidin sensor, soluble pMHC 200 nM"}
{"binder": "B1", "values": [{"measurement": "Kd", "value": 170, "unit": "nM"}]}
